Assay results as given in the supplement of paper PMC11417369.
Some of the results follow.

test system: PF3D7_0420300 AP2 domain 1 (GST-tagged); experiment: gcPBM binding intensity (ln(normalized median fluorescence intensity)); higher = stronger DNA binding
In short: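 After 1 h on an Agilent 4 × 180k array of primer-extended double-stranded 36-bp intergenic genomic probes and negative controls, bound GST-tagged P. falciparum DNA-binding domains were detected with Alexa488 anti-GST antibody and scanned at 488 nm. The domains had been expressed in E. coli, and binding took place in 1× PBS with 1% milk, 0.2 mg/ml BSA, 0.5% salmon testes DNA and 0.03% Triton X-100. Binding intensity is the highest Masliner-normalised natural-log median intensity across replicate spots of either probe orientation.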

Sequence | gcPBM binding intensity (ln)
ACCTATATAAGTTATACACACAAATATAGATATATA [CACACA_site7356] | 9.56
ATTTAAGATTTAATCACACACATATAGATTATAGAC [CACACA_site7383] | 9.77
ATGAAGAAGTGTAAATGTACATTTTATGTAGAACAA [XGTACX_site6925] | 9.23
TTTACAGAAAGTTACATACACACTAATATTTACACC [CACACA_site1009] | 9.57
TATAAGAGGATATATACACACAAAAATATGTACAGT [CACACA_site6885] | 9.91
TTTATATGTATTAAGTGTACACATATAATGTGTTTG [XGTACX_site6629] | 9.29
TTATTTTTTTTTTATTGTACTAGGAAAATTTCGATA [XGTACX_site702] | 8.88
TTTGACAAATTATTGTGTACACAATATTATTATATA [XGTACX_site8320] | 9.09
ACAAAATGTAGATATTGTACATATTGTAGATATTGT [XGTACX_site7619] | 9.32
AATAAAAAAGAATATACACACATAAATATAAAATAT [CACACA_site683] | 9.9
AATTAAAAAGAAAAAAGTACATATTTTTTTAAAAAA [XGTACX_site7384] | 9.08
ATATATATATATATGTGTACTAATAAGGTTAAATAA [XGTACX_site1535] | 9.3
AAATATATATTTCTTAGTACATATGTATTTTTTTTT [XGTACX_site938] | 9.26
TGTATGTATAATTGAGTGCACAGAAAAAAAAAAGAA | 9.51
AGAAAAAAAAAAAAAAAACACACGGTACATTCAAAG [CACACA_site2] | 9.64
TAATTTTCATATTTCTGTACATATATTATAAATATA [XGTACX_site3480] | 9.19
TAATATATATATATTACACACACGTATTATTAAATA [CACACA_site432] | 9.59
ATTTACATTATATTGAATATGCCATATTATATTATT [CACACA_negctrl_site811] | 9.39
TCTAACATATTTTTAATACACACTTAAAAAAGTACT [CACACA_site1366] | 9.14
AATGCTTTTCATCAAGTGCAATATGTTAATACAAAC [GTGCAC_site9619] | 9.08
TCTATATCAACCAGTTGTACTGAATTTACTATATTT [XGTACX_site4205] | 9.31
TATAAAAGTAGACACACACACATATAAATATAAATA [CACACA_site6567] | 10.1
GTAGACTGAAACCACACACACATATATAAATATATT [CACACA_site6433] | 9.92

Sequence | gcPBM binding intensity (ln)
AAAAAAAAAAATGGTTGTACTTTTTTTATTTGGTGC [XGTACX_site4498] | 8.98
ATATTATATTGGATGTTGCACTTAACAAAAGGATAT [GTGCAC_site9478] | 9.23
ATAGACTTTTGTTTTGTTTTATTTTATTGTATTGTA [CACACA_negctrl_site618] | 9.52
ACCATACAGAATAATGCATGTTCCTTTTTATGAATA [TGCATGCA_site995] | 9.17
AAAAAAATAAAGGATATACACACTAATTATATATAT [CACACA_site2812] | 9.64
TATACTTGTAAATGCACACATAAGATGCGACTAATG [CACACA_site2118] | 9.25
AGATTATAAAATTCTACACACATATATACCTATATA [CACACA_site5848] | 9.54
AAAATAATTGTTTACACACCCATTTGTAATTTTACC [CACACA_site3614] | 9.57
CTGTGTTTTGGTTGTACACACGCTACATTCTATATT [CACACA_site2698] | 9.69
AAAAAATATTTATGTTCACACATTTTATATATGATA [CACACA_site4821] | 9.2
TTTTTTTTTTGATGAGCACACATGTTTTTTCTTAGA [CACACA_site3171] | 9.17
AAATATTTTTAAAGAAGTACTTTTTAAAAATAATCT [XGTACX_site4897] | 9.01
AAGATACACCTTTTTAGTACTTACATTTTTTTTATT [XGTACX_site1373] | 9.55
TCTTTGTTTTTTTTTTTTAAACAAAATCATCAAAGG [XGTACX_negctrl_site192] | 8.69
GCGTATACTTGTAACGGTACACAGGAAATTATAGAA [XGTACX_site507] | 9.19
AATAAATATATATACACACCCATATATATATATATA [CACACA_site2595] | 9.43
TACACTTTTTTTTGTACACACTAAAAAGATTAACAA [CACACA_site6037] | 9.07
TTAATGAAATATTATACACACAAAAAAATAATTTTA [CACACA_site4231] | 9.45
TAATGTTGTTTCTGAGGTACACAATTTTTTTTATTT [XGTACX_site8035] | 9.41
TATATATATGGACACACACACACCAAAGCGTAGCGC [CACACA_site4209] | 9.92
AGATAAAATATATATGCACACACATATATATTTCAT [CACACA_site9183] | 9.53
ATAATTATTTAATATATATATATTATTTCGAATGTT [GTGCAC_negctrl_site688] | 9.29
TAATTATTTAAAAAGAGTACATTTTTTTTTTTTTTT [XGTACX_site1060] | 8.9

Sequence | gcPBM binding intensity (ln)
ATTCTATATAAATATACACACATATATAAAATACAT [CACACA_site2293] | 9.54
TTAATAATTAATATATGTACTGATAAATAACATATA [XGTACX_site3966] | 9.07
ACATATCTATCGTTTTTAATTGTATATTATTATAAC [TGCATGCA_negctrl_site144] | 9.37
TGTTTGTAATTATGTATGCACTTTTTTGTATGTGTG [GTGCAC_site9668] | 9.58
TCTTGTATATGTTAAAGTACACAACAATATATATAT [XGTACX_site6814] | 9.21
TCCCACTGTTATATTGAAAAAAAAAAAAAAAAAAAA [TGCATGCA_negctrl_site288] | 8.61
TAATGAGCGCTTGTAGTGCATTATATTCAAAAATAT | 8.88
ATATTCTTGTTTAATACACACTGTAGTATTATATAT [CACACA_site4400] | 9.62
AGAAAAAAACAACATGCACACGCACCCACAAAAAAA [CACACA_site7908] | 9.71
AATTATATGCTTAATACGCACACGGGAAAAAAAAAA [CACACA_site1376] | 9.26
TAAATAAAAAAAAATCGTACATATATTTTATATATG [XGTACX_site3293] | 8.92
TTTTCAAAAATATACACACACATAAATATCTGTATA [CACACA_site4586] | 9.61
TCGTAATAATAGTTGAGTACGCACTAATATGTCAAT [XGTACX_site643] | 9.38
TATTTACATTTTAGTAGTACATATATGTATATATAT [XGTACX_site6839] | 9.14
GAACATTTCACACAAAAAAAAAAAAATATATATATA [TGCATGCA_negctrl_site518] | 9.24
ACATGATGTCATAAATGTACGCACACATACATAAAC [XGTACX_site1198] | 9.44
TCTTTTTAAATATATACACACCGTGTCTACAGATAC [CACACA_site5784] | 9.19
TACTAATATAATAAAAGTACTTAAATAAATATATGT [XGTACX_site2220] | 9.3
AAAAAAAAAAAACACACACACACAAATATATAAAAA [CACACA_site1171] | 10.1
ATACCTTCTTTTATGTTTAATTAATATACTTTTTAT [CACACA_negctrl_site1557] | 9.51
GTATAAAAGTTATATACACACAACAGAATTACATAT [CACACA_site6212] | 9.8
TTTGAAAAAAATTAATGTACATTTGAAATGACATAT [XGTACX_site3902] | 8.93
AATACATACATACATACACACATATAAATATATTAT [CACACA_site7650] | 9.85

Sequence | gcPBM binding intensity (ln)
TCATATATGGGTAGTATACACACTGTATATTTAGGA [CACACA_site2844] | 9.31
TTTGCCCAAAAAGGTACACACCACAATGTACATAAA [CACACA_site4599] | 9.29
TTTTATTTAAATACACGTACATAATGTATATATATA [XGTACX_site7160] | 9.14
TACTAAGAATTAATATAACAAAATAAAAAAAAAAAA [XGTACX_negctrl_site346] | 9.19
ATACAGATATATAATACACACATAAATGTAACATTT [CACACA_site5864] | 9.77
ATGTATATATATATATGTACTAATTAGTAGTTTACG [XGTACX_site6272] | 9.35
TGTATGTATAAAAACGCATGTATGTATTTTACAATA [TGCATGCA_site767] | 9.14
GATATTTTTTTCGAAAGTACAAAAAAAAATATTTCC [XGTACX_site4389] | 8.86
AAAATTAAAAATAACACACACATATATATATTTATA [CACACA_site2776] | 9.84
ATATATATACCAAGTAGTACATTCTACAACTAATGT [XGTACX_site8653] | 9.24
TTTATTTGTAACGGTTGTACTTGTATATCATTATGA [XGTACX_site4281] | 9.47
TAGTGATATAATTATGTGCACTTAATACAGGTCGAT | 9.42
CACTAAAATAGACACACACACACACGGATATAAATA [CACACA_site7873] | 10.3
CTTAAATTTAAGTTCACACATATTGGTCATTTATAT [CACACA_site5006] | 9.42
TAGATACATACACGCACACACATATATATATATATA [CACACA_site12] | 9.77
AATGTACGTTTTATAACACACACACTAATAAAAAAA [CACACA_site9286] | 9.78
CCACATTAAAAAAAAACACACATATATTATAGATAT [CACACA_site6662] | 9.64
ATCTTCAAAAATATTAGTACACATGTATCATGAATT [XGTACX_site3872] | 9.12
AGAAAAGAAATTAGTTGTACTCTGATGAATTATCCT [XGTACX_site6284] | 9.12
GATGTTCATCACTACACACACAAAGAAATATAAATA [CACACA_site7294] | 9.76
